Laboratory results reported in the RNAGym collection of RNA variant scans (doi:10.7554/elife.90254).
The source gives no read counts; variants with many changes may rest on few reads.

B1: LINE1-mini (parent)
chain: GGCAGAGCUCAACACAGCGUGGCAAAGUGGCUGUGGCUAGACUGCC

Variants of: B1
Test: self-cleavage, relative activity (ratio to wild type); higher = more cleavage; in vitro, sequencing; the parent is a self-cleaving ribozyme

Variant | self-cleavage
C3U C10A A41C | 0.03
C3U C10A C15G | 0.01
C3U C10A C42G | 0.01
C3U C10G C37A U43C C45A | 0.01
C3U C10G G19U C31U G40C C42U | 0
C3U C10G G33U A41G | 0.01
C3U C10G U34G G40C | 0
C3U C10U A11U G17C G21A | 0.06
C3U C10U A24C G35U | 0.11
C3U C10U A25C | 0.07
C3U C10U C13U | 0.08
C3U C10U C18U G35A | 0.07
C3U C10U C42U C46G | 0.08
C3U C10U G17A G22C G30A C42A | 0.02
C3U C10U U28G A39G C42G | 0.07
C3U C13A U34A | 0.03
C3U C13G C15A A16G A25U G30A C46G | 0.05
C3U C13G C23U G40C C42G | 0.02
C3U C13G G33U G35A | 0.06
C3U C13U A26U U32A C42U | 0.21
C3U C13U C23U G29U C31U G40C A41G | 0.26
C3U C13U C42A | 0.08
C3U C13U G17A | 0.08
C3U C15A A16G | 0.07

Variant | self-cleavage
C3U C15A A24C U28C A39C G44A | 0.06
C3U C15A C18U U34C | 0.05
C3U C15A G19A U34G C37U | 0.03
C3U C15A G19C G29C | 0.03
C3U C15G G17C C18U G27A G33C C46A | 0.03
C3U C15G U20C G29C | 0.04
C3U C15U U20G U32A G35U U43A C46A | 0.01
C3U C18A C45G | 0.03
C3U C18A G30U C37A C42U G44U C46G | 0.65
C3U C18A U20G G36U | 0.07
C3U C18G A24C A39U G44U | 0.01
C3U C18G C46A | 0.12
C3U C18U A25C | 0.22
C3U C18U C31U | 0.03
C3U C18U G19U | 0.15
C3U C18U G30U U38A | 0.1
C3U C23A G35A G44U | 0.05
C3U C23A U38A C45A | 0.07
C3U C23G G30A U32A G33A G35U | 0.05
C3U C23U A41C | 0.05
C3U C31A C42U C45G | 0.03
C3U C31A G36A G40A | 0.16
C3U C31G C46A | 0.03
C3U C31U U34A C37U | 0.06

Variant | self-cleavage
C3U C37G C46G | 0.09
C3U C42G C45A | 0.01
C3U G5A A24G | 0.31
C3U G5A C8G | 0.06
C3U G5A C18A G19U G22U G27C G29U U43A | 0.25
C3U G5A C18G C37A | 0.05
C3U G5A C18G C45A | 0.02
C3U G5A C42A | 0.08
C3U G5A G17A C18A G33C | 0.02
C3U G5A G30A G40U C42U | 0.14
C3U G5A G35U | 0.28
C3U G5A G36C A41C U43G | 0.08
C3U G5C A11C C23A C31G | 0.01
C3U G5C A14U G33A U38C | 0.05
C3U G5C A16G G33A | 0.07
C3U G5C A39U | 0.02
C3U G5C C10U A39U | 0.06
C3U G5C G19C A26U C46A | 0.06
C3U G5C G27U G30C | 0.21
C3U G5U A6U C10U G33A | 0.03
C3U G5U A12C U20G G22A U34C | 0.05
C3U G5U C8A G22A A25C C31G A39G | 0.46
C3U G5U C15A | 0.06
C3U G5U U9G G17A C37A G44U | 0.05

Variant | self-cleavage
C3U G5U U32C | 0.05
C3U G7A A11U A14U A16G A26C G29U | 0.01
C3U G7A A12U C45G | 0.22
C3U G7A C31U | 0.33
C3U G7A G22U A24U U34A | 0.09
C3U G7A U34G C37G | 0.03
C3U G7C C13A G21A G35U | 0.05
C3U G7C C18U G30A | 0.3
C3U G7C C31U G44C | 0.05
C3U G7C U9C G27A | 0.03
C3U G7U A12G C23U | 0.03
C3U G7U A14C G17A | 0.19
C3U G7U C18A U28G | 0.77
C3U G7U U20G A26C | 0.05
C3U G17A C18A | 0.07
C3U G17A C18U G19U U28A G40U | 0.01
C3U G17A G22A | 0.09
C3U G17C G33U U43C | 0
C3U G17C U20A G21A U32G G35A C46G | 0.06
C3U G17U C18G U32C | 0.09
C3U G17U C23U G44U | 0.02
C3U G17U C37U | 0.04
C3U G17U C46A | 0.09
C3U G17U G19A | 0.57

Variant | self-cleavage
C3U G17U G29U | 0.05
C3U G17U U28C | 0.09
C3U G19A C31G U34C | 0.03
C3U G19A U38A C45G | 0.18
C3U G19A U38C | 0.26
C3U G19C C23A G27C C45A | 0.12
C3U G19C C31G G36U C46A | 0.04
C3U G19C G40C | 0.02
C3U G21A G36C A39U | 0.17
C3U G21A G40C | 0.04
C3U G21A U43A | 0.3
C3U G21C C37G C45A | 0.06
C3U G21U C42G C46G | 0.01
C3U G21U G27U C31G | 0.02
C3U G22A G30C U34C | 0.08
C3U G22A G40C G44A | 0.02
C3U G22A U43A | 0.14
C3U G22C A24G G30C U38A G44A | 0.24
C3U G22C A25G A41U | 0.1
C3U G22C U28C C37A | 0.02
C3U G22U C37A G44U | 0.69
C3U G27A G30U G40C | 0.06
C3U G27U U38C U43C | 0.1
C3U G29U C37A | 0.22

Variant | self-cleavage
C3U G29U C46G | 0.26
C3U G30A U34C C45U | 0.08
C3U G30C A41C | 0.13
C3U G30U G33U G35U | 0.03
C3U G33A G36A C45G | 0.05
C3U G33A U38C C42U | 0.08
C3U G33U A41G | 0.12
C3U G33U G36C | 0.09
C3U G33U U34A | 0.25
C3U G35A C37A | 0.31
C3U G35C G44U | 0.06
C3U G36A A39U | 0.62
C3U G36U U43C | 0.07
C3U U9A A11C G29A G30C U38C | 0
C3U U9A C10G C45A | 0.01
C3U U9A G17U | 0.1
C3U U9A G27A U28A | 0.42
C3U U9C A11G A16C U20A G30C C45U | 0.01
C3U U9C C15A | 0.05
C3U U9C C31G G35A | 0.02
C3U U9C G27C | 0.04
C3U U9G C45G | 0.03
C3U U9G G22C C23U G44A | 0.02
C3U U9G U32A U43A G44A | 0.03

Variant | self-cleavage
C3U U20A A24C U28G | 0.14
C3U U20A A39G | 0.02
C3U U20A G35U | 0.06
C3U U20C A24C C31A | 0.23
C3U U20C G27A C31A U38G U43A C46A | 0.01
C3U U20G C31A C46A | 0.03
C3U U20G C31A G35U | 0.02
C3U U20G G29A | 0.19
C3U U28A C37A G40U | 0.73
C3U U32C G40U | 0.06
A4C A6C A16G G19A U43C | 0.02
A4C A6C C37A | 0.01
A4C A6U A11G C46A | 0.02
A4C A6U C8A G30U | 0.96
A4C A6U C15G G40C | 0.01
A4C A6U C18A U28C C45U C46U | 0.08
A4C A6U G7C A16C A24G A25G U28C | 0.02
A4C A6U G22C U32A | 0.05
A4C A6U U20A G21C A25G G29A | 0.03
A4C A11C U43G | 0.03
A4C A11G G29A | 0.01
A4C A11U G21A G27U C31U | 0.02
A4C A11U U34C | 0.04
